# Patent publication US20240247069A1, “FGFR3 BINDING MOLECULES AND METHODS OF USE THEREOF” (Regeneron Pharmaceuticals, Inc., priority 2023, published 2024)
# T1: moFGFR3b (mmh) (Mus musculus, UniProt Q61851)
# T1 construct: biotinylated human or mouse FGFR3b-ecto.mmH, human FGFR3c-ecto.mmH; mmh (own knowledge: myc-myc-hexahistidine) (C)
# T1 sequence (Q61851 21-371 isoform Q61851-2): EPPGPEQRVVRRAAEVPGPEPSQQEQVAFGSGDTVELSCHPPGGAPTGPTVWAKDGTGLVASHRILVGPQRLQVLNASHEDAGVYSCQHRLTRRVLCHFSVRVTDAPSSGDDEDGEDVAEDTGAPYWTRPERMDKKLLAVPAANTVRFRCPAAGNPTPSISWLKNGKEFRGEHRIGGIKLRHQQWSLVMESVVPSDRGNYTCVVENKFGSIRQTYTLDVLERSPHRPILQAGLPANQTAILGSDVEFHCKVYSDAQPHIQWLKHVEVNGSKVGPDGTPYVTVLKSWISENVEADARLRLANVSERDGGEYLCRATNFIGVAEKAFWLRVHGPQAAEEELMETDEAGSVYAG
# T2: hFGFR3c (mmh) (Homo sapiens, UniProt P22607)
# T2 construct: biotinylated human or mouse FGFR3b-ecto.mmH, human FGFR3c-ecto.mmH; mmh (own knowledge: myc-myc-hexahistidine) (C)
# T2 sequence (P22607 23-375 limits assumed): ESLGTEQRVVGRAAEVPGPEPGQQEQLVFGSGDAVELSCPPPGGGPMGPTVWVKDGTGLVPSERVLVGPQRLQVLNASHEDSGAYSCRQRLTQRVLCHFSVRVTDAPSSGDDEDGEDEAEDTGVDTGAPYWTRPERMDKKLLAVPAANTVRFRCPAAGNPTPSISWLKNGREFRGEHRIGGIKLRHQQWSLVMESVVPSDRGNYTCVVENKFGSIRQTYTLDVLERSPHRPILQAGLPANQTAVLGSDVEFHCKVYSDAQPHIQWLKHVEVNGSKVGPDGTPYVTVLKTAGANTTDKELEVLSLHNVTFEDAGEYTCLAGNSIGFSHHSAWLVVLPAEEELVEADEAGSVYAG
# B1: mAb071: parental anti-FGFR3 antibody; additional scFv arm of AF antibodies (antibody)
# heavy: QVQLQQSGPGLVKPSQTLSLTCAISGDSVSRNSAAWNWIRQSPSSGLEWLGRTYYRSKWFYDYAISVKSRITVNPDTSKNQFSLHLNSVTPEDTAVYYCARGYGGYEDYFDYWGQGTLVTVSSASTKGPSVFPLAPCSRSTSESTAALGCLVKDYFPEPVTVSWNSGALTSGVHTFPAVLQSSGLYSLSSVVTVPSSSLGTKTYTCNVDHKPSNTKVDKRV[human IgG4 Fc with S228P (EU numbers) cut from this listing]
# light: DIQMTQSPSSVSASVGDRVTITCRASQGISSWLAWYQQKPGKAPKLLIYGASSLQSGVPSRFSGSGSGTDFTLTISSLQPEDFATYFCQQGSSFPYTFGQGTKLEIKRTVAAPSVFIFPPSDEQLKSGTASVVCLLNNFYPREAKVQWKVDNALQSGNSQESVTEQDSKDSTYSLSSTLTLSKADYEKHKVYACEVTHQGLSSPVTKSFNRGEC
# B2: mAb076: parental anti-FGFR3 antibody; anchor or additional arm of AF antibodies (antibody)
# heavy: EVQLVESGGGLVQPGGSLRLSCAASGFTVSSNYMSWVRQAPGKGLEWVSIIYSGGHTYYSDSVKGRFTISRHNSKNTLYLQMNSLRGGDTAVYYCARGYTSGWYGFDFWGQGTLVTVSSASTKGPSVFPLAPCSRSTSESTAALGCLVKDYFPEPVTVSWNSGALTSGVHTFPAVLQSSGLYSLSSVVTVPSSSLGTKTYTCNVDHKPSNTKVDKRV[human IgG4 Fc with S228P (EU numbers) cut from this listing]
# light: B1 light with S31T, G50A, S65T, F87Y, G91T, S92N, Y96W, L104V
# B3: mAb061: parental anti-FGFR3 antibody; additional scFv arm of AF antibodies (antibody)
# heavy: EVQLVESGGGLAQPGGSLKLSCEASGFTFSDSAMHWVRQASGKGLEWVGRIRSKANSYATGYAASVKGRFTISRDDSKNMAFLEMNSLKTEDTAVYYCLRQTYGDPWGQGTLVTVSSASTKGPSVFPLAPCSRSTSESTAALGCLVKDYFPEPVTVSWNSGALTSGVHTFPAVLQSSGLYSLSSVVTVPSSSLGTKTYTCNVDHKPSNTKVDKRV[human IgG4 Fc with S228P (EU numbers) cut from this listing]
# light: DVVMTQSPLSLSVTLGQPASISCRSSLSLVYSDGNNYLNWFQQRPGQSPRRLLYKVFNRDSGVPDRFSGSGSGTDFTLKISRVEAEDVGVYYCMQGTHWPWTFGQGTKVEIKRTVAAPSVFIFPPSDEQLKSGTASVVCLLNNFYPREAKVQWKVDNALQSGNSQESVTEQDSKDSTYSLSSTLTLSKADYEKHKVYACEVTHQGLSSPVTKSFNRGEC
# B4: mAb045: parental anti-FGFR3 antibody; additional scFv arm of AF antibodies (antibody)
# heavy: QVQLVQSGAEVKKPGASVKVSCKTSGYRFVNYGFSWVRQAPGQGLEWMGWISPYNGNTNYIQNLQDRITMTTDTSTNTAYMELTNLRSDDTAVYYCATLTGVHFDYWGQGTLVTVSSASTKGPSVFPLAPCSRSTSESTAALGCLVKDYFPEPVTVSWNSGALTSGVHTFPAVLQSSGLYSLSSVVTVPSSSLGTKTYTCNVDHKPSNTKVDKRV[human IgG4 Fc with S228P (EU numbers) cut from this listing]
# light: AIQMTQSPSSLSASVGDRVTITCRASQGIRNDLGWYQQKPGKAPNLLIFETSRLQSGVPSRFSGSGSGTDFTLTINSLQPEDFATYYCLQDYNYPWTFGQGTKVEIKRTVAAPSVFIFPPSDEQLKSGTASVVCLLNNFYPREAKVQWKVDNALQSGNSQESVTEQDSKDSTYSLSSTLTLSKADYEKHKVYACEVTHQGLSSPVTKSFNRGEC
# Target: T1, moFGFR3b (mmh)
# Assay: Biacore binding to mouse FGFR3b
# Conditions: unit inferred; NB = no binding observed
# Experimental: (§1) Affinity and mechanism of action of binding of anti-FGFR3 antibodies to FGFR3 isoforms were determined by Biacore analysis. In brief, in-house generated monoclonal anti-human Fc antibody was immobilized on the surface of a CM-5 sensor chip. Different concentrations of FGFR3 antibodies were injected at 50 μL/min for 4 min and the assay was performed at 25° C. The mAb binding response was monitored and, for low affinity receptors, steady-state binding equilibrium was calculated. Kinetic association (ka) and dissociation (kd) rate constants were determined by processing and fitting the data to a 1:1 binding model using Scrubber 2.0 curve fitting software. Binding dissociation equilibrium constants (KD) and dissociative half-lives (t1/2) were calculated from the kinetic rate constants using the formula: KD (M)=kd/ka; and t1/2 (min)=(ln2/(60*kd). Some KD values were derived using the steady state equilibrium dissociation constant; When no KD values could be derived, it was marked as NB (no binding observed) or IC (inconclusive affinity determination due to low specific RU signal).
row,Kd,Molecule
1,15.5 nM,B1
2,0.818 nM,B2

# Target: T2, hFGFR3c (mmh)
# Assay: Biacore binding to human FGFR3c
# Conditions: unit inferred; NB = no binding observed
# Experimental: as §1
row,Kd,Molecule
1,3.93 nM,B3
2,20.4 nM,B4

# Tested on: FGFR3
# Assay: Ligand blocking activity of parental anti-FGFR3 antibodies (Table 1)
# Format: binding
# Conditions: not given
row,Molecule,Ligand Blocking Activity (percent value of the cell)
1,B3,84%
2,B4,3%
3,B1,88%
4,B2,−1%

# Same assay, conditions: cell prints value/%; unit inferred; NB not defined for this column; read-out: Ligand Blocking Activity (first value of the cell)
row,Molecule,IC50
1,B3,3.9 nM
2,B1,3.6 nM

# Target: hFGFR3b (mmh)
# Assay: Biacore binding to human FGFR3b
# Conditions: unit inferred; NB = no binding observed
# Experimental: as §1
row,Kd,Molecule
1,2.5 nM,B3
2,20.2 nM,B4
3,0.703 nM,B1
4,1.09 nM,B2

# Target: mfFGFR3b (mmh)
# Assay: Biacore binding to monkey FGFR3b
# Conditions: unit inferred
# Experimental: as §1
row,Kd,Molecule
1,3.42 nM,B3
2,13.9 nM,B4
3,0.827 nM,B1
4,1.2 nM,B2

# Tested on: FGFR3
# Assay: Agonist activity of parental anti-FGFR3 antibodies (Table 1)
# Format: cell-based
# Conditions: not given
row,Molecule,Agonist Activity (percent value of the cell)
1,B3,55.3%
2,B4,31.3%
3,B1,17.2%
4,B2,15.2%

# Same assay, conditions: read-out: Agonist Activity (first value of the cell); cell prints value/%; unit inferred
row,Molecule,EC50
1,B3,0.18 nM
2,B4,0.11 nM

# Changes are numbered by the printed parent chain.
